According to publication PMC8985225, “Conserved and divergent features of neuronal CaMKII holoenzyme structure, function, and high-order assembly” (Cell reports, 2021):
“And” between values parts separate entries of the source, which are not always exact repeats. Equal entries are not always repeated.

Target: the molecule itself
Test: negative-stain single-particle EM; purified holoenzymes diluted in 50 mM HEPES pH 7.4, 120 mM KCl, 0.5 mM EGTA (~0.35 μM), stained with uranyl formate; basal state; focused reference-free 2D classification of the hub domain (15 nm mask, no symmetry applied); stoichiometry of the holoenzyme

B1: Ca^2+/CaM-dependent kinase II β (CaMKIIβ) holoenzyme (enzyme)
chain: not shown
notes: CaMKIIβ, rodent, the major splice variant of adult mammalian brain (β, not β', βe, βe' or βM); full-length subunit of the homomeric holoenzyme (N-terminal kinase domain, regulatory domain, ~92-residue linker, C-terminal association/hub domain); No tag is stated; also called β isoform; source: Sf9 cells via baculovirus, purified (phosphocellulose column, then CaM-sepharose column); copies: 12
  stoichiometry N: 12 and 14 and 16
